The assay has as its target T1, IscU-(his)6, wild-type E. coli IscU scaffold protein (E. coli), P0ACD4.
T1 chain: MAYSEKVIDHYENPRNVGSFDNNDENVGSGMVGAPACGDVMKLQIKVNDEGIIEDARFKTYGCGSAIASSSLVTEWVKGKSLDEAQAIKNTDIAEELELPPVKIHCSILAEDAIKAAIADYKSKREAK
The assay can be described thus: SEC; gel filtration on Superdex 75 10/300 GL in 0.1 M Tris-HCl pH 8, 50 mM NaCl; oligomeric state from a calibration curve (ribonuclease A, chymotrypsinogen A, ovalbumin). The following applies: remark: other sources report otherwise. On the technique in general: Size exclusion chromatography separates by hydrodynamic size, large species first.

What is called stoichiometry N is the number of molecules, sites or subunits per partner or assembly.

B1: IscU-(his)6, wild-type E. coli IscU scaffold protein, P0ACD4 1-128 (natural protein)
chain: T1 chain
As to B1, the stoichiometry N came to 2.

(Values after paper PMC4440780.)
